PubChem BioAssay AID2528 (National Center for Advancing Translational Sciences (NCATS), 2010)
Among all 350,000 compounds or so, about 700 (0.2%) were called active. Calls come from the whole dose curve; as a rule, active = well fitted inhibition curve with a large enough effect; inconclusive = small, poorly fitted or top-dose-only effect; inactive = flat fitted curve, though single readings scatter. The list shows a part of the results, in another mix than the full data.
Note: nearly all actives have a fitted effect of over 35% in size.
Potency is the fitted concentration of half-maximal effect.

The compounds below were run against RecQ-like DNA helicase BLM (Homo sapiens) (UniProt P54132) (assay: qHTS Assay for Inhibitors of Bloom's syndrome helicase (BLM)). Conditions: recombinant BLM DNA unwinding, fluorescence dequenching; series mostly up to 56.1 µM; activity change, negative = inhibition: at the top concentration.
Sequence of UniProt P54132 (P54132 whole entry, looked up): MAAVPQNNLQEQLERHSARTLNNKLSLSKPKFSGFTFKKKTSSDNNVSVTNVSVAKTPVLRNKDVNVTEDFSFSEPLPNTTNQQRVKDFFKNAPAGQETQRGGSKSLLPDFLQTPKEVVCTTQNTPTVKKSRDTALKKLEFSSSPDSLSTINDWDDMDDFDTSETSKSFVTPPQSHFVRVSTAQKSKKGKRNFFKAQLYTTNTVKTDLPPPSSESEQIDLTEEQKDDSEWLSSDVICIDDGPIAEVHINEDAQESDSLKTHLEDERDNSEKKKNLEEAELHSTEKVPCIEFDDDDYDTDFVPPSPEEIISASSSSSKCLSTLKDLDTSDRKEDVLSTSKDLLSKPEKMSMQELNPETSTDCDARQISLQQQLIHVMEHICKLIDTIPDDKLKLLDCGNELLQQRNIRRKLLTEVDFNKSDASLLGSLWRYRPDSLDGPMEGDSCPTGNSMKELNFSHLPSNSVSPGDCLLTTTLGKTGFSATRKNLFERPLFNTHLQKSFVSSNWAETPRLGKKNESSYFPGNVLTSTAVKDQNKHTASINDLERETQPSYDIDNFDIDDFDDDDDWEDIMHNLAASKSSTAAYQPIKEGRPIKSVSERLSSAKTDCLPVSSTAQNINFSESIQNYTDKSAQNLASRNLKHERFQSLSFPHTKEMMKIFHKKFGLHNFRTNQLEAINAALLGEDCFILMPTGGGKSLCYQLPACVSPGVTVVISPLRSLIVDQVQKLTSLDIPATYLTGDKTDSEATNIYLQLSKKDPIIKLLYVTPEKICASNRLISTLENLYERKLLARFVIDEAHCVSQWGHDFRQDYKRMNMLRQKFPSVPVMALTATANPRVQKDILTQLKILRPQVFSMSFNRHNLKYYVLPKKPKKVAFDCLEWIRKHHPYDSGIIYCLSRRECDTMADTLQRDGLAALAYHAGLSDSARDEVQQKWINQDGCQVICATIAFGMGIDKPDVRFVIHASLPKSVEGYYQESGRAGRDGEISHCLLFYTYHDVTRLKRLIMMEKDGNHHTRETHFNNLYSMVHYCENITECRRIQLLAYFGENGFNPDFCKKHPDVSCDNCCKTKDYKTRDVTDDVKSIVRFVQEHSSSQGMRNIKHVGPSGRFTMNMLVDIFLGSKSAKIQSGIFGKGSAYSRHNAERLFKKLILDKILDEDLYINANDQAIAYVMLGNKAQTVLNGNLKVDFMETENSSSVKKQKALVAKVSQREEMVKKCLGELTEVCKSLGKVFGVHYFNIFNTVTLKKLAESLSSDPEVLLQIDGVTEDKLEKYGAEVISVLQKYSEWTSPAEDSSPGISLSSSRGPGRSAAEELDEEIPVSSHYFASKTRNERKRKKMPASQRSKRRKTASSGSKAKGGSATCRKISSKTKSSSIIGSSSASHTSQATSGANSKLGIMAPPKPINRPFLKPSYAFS
Source text: Survival of cells and the faithful propagation of the genome depend on elaborate mechanisms of detecting and repairing DNA damage. Treatment of advanced cancer relies on radiation therapy or chemotherapy, which kill cancer cells by causing extensive DNA damage. It is often found, that cancer cells develop resistance to therapy through enhanced activity of DNA repair functions; this has led to an increased interest in developing drugs that interfere with DNA repair, which could sensitize cancer cells to conventional therapy.
This validation qHTS assay pertains to human BLM, which is important in resolving abnormal DNA structures formed during replication or homologous recombination. Shutting down the expression of BLM leads to chromosomal instability and higher radiation sensitivity in cultured cells.
The validation assay was a fluorescence quenching based kinetic qHTS for BLM Helicase DNA unwinding. The activity was measured as ATP-dependent separation of a 20-bp DNA duplex extended by 30-nt single-stranded tails (forked duplex). The forked DNA substrate was tagged with rhodamine fluorophore (carboxytetramethyl rhodamine, TAMRA) and BHQ-2 (Black Hole Quencher 2) dark quencher. Strand separation results in an increase in the fluorescence of TAMRA (excitation 525 nm, emission 598 nm). This substrate construct operates in a red-shifted region where very few compound library members have been noted to fluoresce (PubChem AIDs 593 and 594). An additional feature of the assay is the inclusion of 2.5 ug/ml poly (dIdC), to reduce interference by compounds such as DNA intercalators, a major source of false inhibitors.
Ian Hickson, University of Oxford
Opher Gileadi, Structural Genomics Consortium, University of Oxford
Screening Center PI: Austin, C.P.
Screening Center: NIH Chemical Genomics Center [NCGC]
Three uL of reaction buffer (25 mM Tris-HCl (pH 8.0), 5 mM NaCl, 2 mM MgCl2, 1mM DTT, 0.01% Tween- 20, and 2.5 ug/ml poly(dI-dC), including enzyme (50 nM BLM), were dispensed into a 1536-well Greiner black assay plate via solenoid-valve based nanoliter dispensers. Compounds (23 nl each in columns 5-48) and control (23 nl each in column 2 as dose-response) were transferred via a Kalypsys pintool equipped with a 1536-pin array. The plates were incubated for 15 min at room temperature, and then 1 ul of substrates (200 nM DNA and 2 mM ATP, final concentrations) was added to start the reaction. The plate was transferred into a ViewLux high-throughput CCD imager where the reaction progress was measured in a discontinuous kinetic mode (two reads spaced 2 hours apart, with intermediate room temperature incubation of the covered assay plate) by using standard red-fluorescence optics (excitation filter 525 nm, emission filter 598 nm). Enzyme-free and vehicle (DMSO) controls were included for signal normalization.
`CN1CC[C@]2(C)c3cc(O)ccc3N(C)[C@@H]12` was tested, and the “activity change, negative = inhibition” value was inactive: -10.8% [at 21.4 µM].
In the case of `O=c1[nH]oc2c1CCNC2`, the Potency was “inactive”.
`CNc1ccc2oc(C[C@@H]3OC4(CC[C@@H]3C)O[C@H](C(C)C(=O)c3ccc[nH]3)[C@H](C)C[C@H]4C)nc2c1C(=O)O` (stereo partly specified) was tested, and the “activity change, negative = inhibition” value was inactive: 1.06%.
For `COc1ccc2c(c1OC)C(=O)O[C@H]2[C@H]1c2cc3c(cc2CCN1C)OCO3`, the “activity change, negative = inhibition” value was inactive: 0.126% [at 21.4 µM].
`CC[C@@H](CO)NC(=O)[C@@H]1C=C2c3cccc4[nH]cc(c34)C[C@H]2N(C)C1` was tested, and the “activity change, negative = inhibition” value was inactive: -16.6%.
With `CNC(C)[C@@H](O)c1ccccc1` (stereo partly specified) the “activity change, negative = inhibition” value was inactive: -7.82%.
With `O=C(CCCN1CCC2(CC1)C(=O)NCN2c1ccccc1)c1ccc(F)cc1` the Potency was “inactive”.
With `NCC1(CC(=O)O)CCCCC1` the Potency was “inactive”.
For `CC(=O)[C@H]1CC[C@H]2C3CC[C@H]4C[C@H](O)CC[C@]4(C)C3CC[C@]12C` (stereo partly specified), the “activity change, negative = inhibition” value was inactive: -0.889%.
With `O=C(O)CC[N+](=O)[O-]` the “activity change, negative = inhibition” value was inactive: -13.5%.
In the case of `CN1C[C@H](CNC(=O)OCc2ccccc2)C[C@@H]2c3cccc4c3c(cn4C)C[C@H]21`, the Potency was “inactive”.
For `COc1ccc2c(c1OC)C(=O)OC2C1c2cc3c(cc2CCN1C)OCO3` (stereo unspecified), the Potency was “inactive”.
`CN1CCC[C@H]1c1cccnc1` was tested, and the “activity change, negative = inhibition” value was inactive: 0.0003%.
In the case of `CC(C)c1cccc(C(C)C)c1O`, the Potency was “inactive”.
For `NC1C[C@H]1c1ccccc1` (stereo partly specified), the “activity change, negative = inhibition” value was inactive: -15.2%.
`CN1C[C@H](C(=O)N[C@]2(C)O[C@@]3(O)[C@H]4CCCN4C(=O)[C@H](Cc4ccccc4)N3C2=O)C[C@H]2c3cccc4[nH]cc(c34)C[C@@H]21` was tested, and the “activity change, negative = inhibition” value was inactive: -15.4%.
`C/C=C(/C)C(=O)O[C@H]1C(C)=C2[C@H]([C@@H]1OC(=O)CCCCCCC)[C@@](C)(OC(C)=O)C[C@H](OC(=O)CCC)[C@@]1(O)[C@H]2OC(=O)[C@@]1(C)O` was tested, and the “activity change, negative = inhibition” value was inactive: -17.4%.
In the case of `Cc1o[nH]c(=O)c1C[C@H](N)C(=O)O`, the Potency was “inactive”.
With `c1ccc2c(c1)OCC(C1=NCCN1)O2` (stereo unspecified) the Potency was “inactive”.
`CC[C@@H](CO)NC(=O)[C@@H]1C=C2c3cccc4c3c(cn4C)C[C@H]2N(C)C1` was tested, and the Potency was “inactive”.
For `C[C@H](CCC(=O)O)[C@H]1CC[C@@H]2[C@H]3CC[C@H]4C[C@@H](O)CC[C@@]4(C)[C@H]3CC[C@]21C`, the “activity change, negative = inhibition” value was inactive: -5.44% [at 21.4 µM].
For `CCN(CC)C(=O)N[C@H]1C[C@@H]2c3cccc4[nH]cc(c34)C[C@H]2N(C)C1`, the “activity change, negative = inhibition” value was inactive: -8.82%.
For `CN1/C(=C\C=C\C2=[N+](C)c3ccc4ccccc4c3C2(C)C)C(C)(C)c2ccccc21`, the Potency was active: 31.6 µM.
For `O=C1NC(=S)N(Cc2ccco2)C(=O)/C1=C\c1cccs1`, the Potency was active: 28.2 µM.
In the case of `CC1OC1P(=O)(O)O` (stereo unspecified), the “activity change, negative = inhibition” value was inactive: -1.24%.
For `C[N+]1(C)[C@@H]2CC(OC(=O)[C@H](CO)c3ccccc3)C[C@H]1[C@@H]1O[C@@H]12` (stereo partly specified), the Potency was “inactive”.
With `CC(CCC(=O)O)C1CCC2C3CC[C@H]4CC(O)CC[C@@]4(C)C3CC[C@@]12C` (stereo partly specified) the “activity change, negative = inhibition” value was inactive: -29.8%.
For `CNc1ccc2oc(C[C@H]3O[C@]4(CC[C@H]3C)O[C@H]([C@H](C)C(=O)c3ccc[nH]3)[C@H](C)C[C@H]4C)nc2c1C(=O)O`, the “activity change, negative = inhibition” value was inactive: -0.188%.
`COC(=O)N1CCN(C(=O)Cc2ccc(Cl)c(Cl)c2)C(CN2CCCC2)C1` (stereo unspecified) was tested, and the “activity change, negative = inhibition” value was inactive: -6.5%.
For `CCCN(CCC)C1Cc2cc(OC)c(OC)cc2C1`, the “activity change, negative = inhibition” value was inactive: -3.06%.
`C[N+]1(C)C2CCC1CC(OC(=O)C(CO)c1ccccc1)C2` (stereo unspecified) was tested, and the “activity change, negative = inhibition” value was inactive: 1.54%.
With `COc1ccc(OC)c([C@H](O)[C@H](C)N)c1` the “activity change, negative = inhibition” value was inactive: 0.941% [at 21.4 µM].
For `CC(=O)c1c(O)c(C)c(O)c(Cc2c(O)c3c(c(C(=O)/C=C\c4ccccc4)c2O)OC(C)(C)C=C3)c1O`, the “activity change, negative = inhibition” value was inactive: -15.5%.
In the case of `CNc1ccc2nc3ccccc3[n+](C)c2c1`, the Potency was active: 17.8 µM.
`N#CC(C#N)=Cc1ccc(O)c(O)c1` was tested, and the “activity change, negative = inhibition” value was inactive: -9.39%.
For `COc1ccc(N2C(=O)/C(=C/C=C/c3ccccc3[N+](=O)[O-])C(=O)NC2=S)cc1`, the Potency was active: 28.2 µM.
`C[C@]12N[C@@H](Cc3ccccc31)c1ccccc12` was tested, and the Potency was “inactive”.
For `C[N+]1(C)C2CC[C@H]1CC(OC(=O)[C@@H](CO)c1ccccc1)C2` (stereo partly specified), the “activity change, negative = inhibition” value was inactive: -0.783%.
In the case of `CC1COC2=C1C(=O)C(=O)c1c2ccc2c1CCCC2(C)C` (stereo unspecified), the “activity change, negative = inhibition” value was inactive: -23.7%.
In the case of `CC(C)NCC(O)COc1cccc2[nH]ccc12` (stereo unspecified), the Potency was “inactive”.
For `C=CCN1CC[C@]23c4c5ccc(O)c4O[C@H]2C(=O)CC[C@@]3(O)[C@H]1C5`, the Potency was “inactive”.
With `Oc1cc2c(cc1O)[C@H]1c3ccccc3CN[C@H]1CC2` the “activity change, negative = inhibition” value was inactive: -2.48%.
With `C=CCN1CC[C@]23c4c5ccc(O)c4O[C@@H]2C(=O)CC[C@]3(O)[C@H]1C5` the Potency was “inactive”.
In the case of `CC(=O)Nc1nnc(S(N)(=O)=O)s1`, the Potency was “inactive”.
With `CCCCCCC(C)(C)c1ccc([C@@H]2C[C@H](O)CC[C@@H]2CCCO)c(O)c1` the “activity change, negative = inhibition” value was inactive: -12.9%.
In the case of `NNCc1cccc(O)c1`, the “activity change, negative = inhibition” value was inactive: 3.19%.
With `C[C@H](N)Cc1c[nH]c2ccc(O)cc12` the “activity change, negative = inhibition” value was inactive: 3.02%.
For `CN[C@@H](C)[C@@H](O)c1ccccc1`, the “activity change, negative = inhibition” value was inactive: -1.88%.
In the case of `Cc1cc(C(C)(C)C)cc(C)c1CC1=NCCN1`, the Potency was “inactive”.
With `CC(C)C[C@H]1C(=O)N2CCC[C@@H]2[C@]2(O)O[C@](NC(=O)[C@H]3C=C4c5cccc6[nH]c(Br)c(c56)C[C@H]4N(C)C3)(C(C)C)C(=O)N12` the “activity change, negative = inhibition” value was inactive: -5.89% [at 21.4 µM].
With `CC(=O)[C@@]1(O)CC[C@H]2[C@@H]3CCC4=CC(=O)CC[C@]4(C)[C@H]3CC[C@@]21C` the Potency was “inactive”.
